Measurements taken from US9957330B2, “Polypeptides” (AFFIBODY AB, priority 2012, dated 2018).

Assays:
CAIX on SK-RC-52 cells = biological target: T1, CAIX on SK-RC-52 cells (Homo sapiens, UniProt Q16790); assay: Immunofluorescence staining of SK-RC-52 cells for flow cytometry analysis; assay type: cell-based; settings: flow cytometry titration 2, 0.5, 0.05 and 0.003 μg/ml, monomer format
T1 construct: The CAIX-expressing renal clear cell carcinoma cell line SK-RC-52; endogenous in cells; host or cells: SK-RC-52 renal clear cell carcinoma cells (provided by Active Biotech, Sweden)
Experimental: SK-RC-52 cells (renal clear cell carcinoma cell line; kindly provided by Active Biotech, Sweden) were cultured in RPMI-1640 (Lonza) with the addition of 10% FCS, 1% glutamine and 1% PEST (penicillin-streptomycin). On the day of assay, SK-RC-52 cells were trypsinated, counted and 0.1-0.2×10^6 cells added to 5 ml falcon tubes. The cells were pelleted by centrifugation at 1200 rpm and supernatant removed. The cells were stained with following maturated Z variants in monomer format; Z06919, Z06936, Z06942, Z06959, Z06961, Z06976, Z06984, Z06986, Z06999, Z07084, Z07089 and Z07091. For screening, 100 μl of 12 different binders diluted in PBS 2% FCS to 10 μg/ml was added and cells were incubated for two hours at 4° C. Alternatively, the binders were titrated for EC50 value calculations at four different concentrations: 2, 0.5, 0.05 and 0.003 μg/ml. Z variant Z08693, which corresponds to Z variant Z04196 identified in Example 1 but for the amino acid substitution A54S, was included in the assay for comparison. A Z variant binding to an unrelated target was used as negative control and PBS was used as background control. The cells were washed once by filling up the tube with PBS and pelleting the cells by centrifugation. The pelleted cells were resuspended in 100 μl of a goat anti-Z variant-specific Ig, 5 μg/ml and incubated for one hour at 4° C. A goat anti-CAIX specific antibody, MAB2188 (R&D systems), was included as a positive control at a concentration of 5 μg/ml. Cells were subsequently washed in PBS as described and resuspended in 100 μl of Alexa488-labeled anti-goat antibody (Invitrogen) at a concentration of 10 μg/ml. After 45 minutes of incubation at 4° C., cells were washed in PBS, resuspended in 300 μl of PBS and subjected to FACS analysis using a FACSCantoll. The MFI was recorded.

biotinylated human CAIX = biological target: T2, biotinylated human CAIX (Homo sapiens, UniProt Q16790); assay: ELISA KD analysis (target titration) of CAIX binders; assay type: binding; settings: ELISA titration of biotinylated human CAIX 24 nM to 38 pM; periplasm samples, Z variant ABD fusions
T2 construct: purchased R&D Systems 2188-CA
Experimental: Single colonies containing Z variants (expressed as Z variant ABD fusion proteins as described in Example 3) were randomly picked from the selected clones of the CAIX maturated library and grown in 1 ml cultivations as described in Example 1. Periplasmic proteins were released by 6 repeated freeze-thawing cycles. ELISA screenings were performed essentially as described in Example 1 with the following exceptions. Half-area 96-well ELISA plates were coated with 2 μg/ml of an ABD specific goat antibody (produced in-house) diluted in coating buffer. The antibody solution was poured off and the wells were blocked with 100 μl of PBSC (PBS supplemented with 0.5% casein; Sigma, cat. no. C8654) for 1.5 h at RT. Biotinylated human CAIX was used at a concentration of 0.25 μg/ml (6 nM) diluted in PBSC and incubation was performed for 1 h. Streptavidin conjugated HRP was obtained from Thermo Scientific (cat. no. N100) and diluted 1:30,000 in PBSC before addition to the wells and incubated for 45 min. […] Absorbance of the wells was measured at 450 nm using a multi-well plate reader, Victor^3 (Perkin Elmer). […]
A selection of CAIX binders was subjected to an analysis of the response against a dilution series of biotinylated human CAIX using ELISA as described above. […] Obtained values were analyzed using GraphPad Prism 5 and non-linear regression.

Z06919: matured CAIX binding Z variant, 58 residues, SEQ ID NO:232 (VDAKYAKEHLFAGWEIEDLPNLTEYQRNAFIYKLWDDPSQSSELLSEAKKLNDSQAPK; His6 tag; Engineered CAIX-binding polypeptide)
EC50 (CAIX on SK-RC-52 cells): 0.02 µM

Z06941: matured CAIX binding Z variant, 58 residues, SEQ ID NO:281 (VDAKYAKENIFAGWEIDDLPNLTDNQRHAFIYKLWDDPSQSSELLSEAKKLNDSQAPK; Engineered CAIX-binding polypeptide)
KD ELISA (biotinylated human CAIX): Interrupted

Z06943: matured CAIX binding Z variant, 58 residues, SEQ ID NO:245 (VDAKYAKENLFAGWEITDLPNLTDYQRHAFIYKLWDDPSQSSELLSEAKKLNDSQAPK; Engineered CAIX-binding polypeptide)
KD ELISA (biotinylated human CAIX): Ambiguous

Z06959: matured CAIX binding Z variant, 58 residues, SEQ ID NO:233 (VDAKYAKENLFAGWEITDLPNLTIEQRNAFIYKLWDDPSQSSELLSEAKKLNDSQAPK; His6 tag; Engineered CAIX-binding polypeptide)
EC50 (CAIX on SK-RC-52 cells): 0.018 µM

Z06961: matured CAIX binding Z variant, 58 residues, SEQ ID NO:234 (VDAKYAKENLFAGWEIGDLPNLTEQQRHAFIYKLWDDPSQSSELLSEAKKLNDSQAPK; His6 tag; Engineered CAIX-binding polypeptide)
EC50 (CAIX on SK-RC-52 cells): 0.017 µM

Z06984: matured CAIX binding Z variant, 58 residues, SEQ ID NO:236 (VDAKYAKENIFAGWEIDDLPNLTTYQRNAFIYKLWDDPSQSSELLSEAKKLNDSQAPK; His6 tag; Engineered CAIX-binding polypeptide)
EC50 (CAIX on SK-RC-52 cells): 0.011 µM

Z06986: matured CAIX binding Z variant, 58 residues, SEQ ID NO:237 (VDAKYAKENLFAGWEINDLPNLTEYQRNAFIYKLWDDPSQSSELLSEAKKLNDSQAPK; His6 tag; Engineered CAIX-binding polypeptide)
EC50 (CAIX on SK-RC-52 cells): 0.012 µM

Z06999: matured CAIX binding Z variant, 58 residues, SEQ ID NO:238 (VDAKYAKEHLFAGWEITDLPNLTEQQRNAFIYKLWDDPSQSSELLSEAKKLNDSQAPK; His6 tag; Engineered CAIX-binding polypeptide)
EC50 (CAIX on SK-RC-52 cells): 0.016 µM

Z07089: matured CAIX binding Z variant, 58 residues, SEQ ID NO:239 (VDAKYAKENIFAGWEITDLPNLTVQQRHAFIYKLWDDPSQSSELLSEAKKLNDSQAPK; His6 tag; Engineered CAIX-binding polypeptide)
EC50 (CAIX on SK-RC-52 cells): 0.012 µM

Z07091: matured CAIX binding Z variant, 58 residues, SEQ ID NO:230 (VDAKYAKENLFAGWEIDDLPNLTESQRNAFIYKLWDDPSQSSELLSEAKKLNDSQAPK; His6 tag; Engineered CAIX-binding polypeptide)
EC50 (CAIX on SK-RC-52 cells): 0.018 µM

Z08693: Z variant (SEQ ID NO:358) corresponding to Z04196 but for the amino acid substitution A54S (VDAKYAKEWKFASIEIADLPNLTQHQKDAFIFKLWDDPSQSSELLAEAKKLNDSQAPK; N-terminal His6 tag; Engineered CAIX binding polypeptide)
EC50 (CAIX on SK-RC-52 cells): ~1.8 µM
EC50 (CAIX on SK-RC-52 cells; listed as His6-Z08693): 1.82 µM
